The list shows a part of the results. Values were computed here from the reads of four pooled replicates and scatter widely.
These sequences were tested against T1, Pho4 (S. cerevisiae) (UniProt P07270) (assay: relative binding free energy (BET-seq); higher = weaker binding). Settings: reference: library average.
T1 sequence: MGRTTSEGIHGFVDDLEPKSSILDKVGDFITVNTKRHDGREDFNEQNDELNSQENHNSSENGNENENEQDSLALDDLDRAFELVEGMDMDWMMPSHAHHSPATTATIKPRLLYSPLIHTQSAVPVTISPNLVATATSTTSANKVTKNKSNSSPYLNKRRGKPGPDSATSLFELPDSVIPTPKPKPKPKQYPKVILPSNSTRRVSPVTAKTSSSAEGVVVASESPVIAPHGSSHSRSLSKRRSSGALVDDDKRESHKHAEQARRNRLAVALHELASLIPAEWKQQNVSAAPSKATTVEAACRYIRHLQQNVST

Sequence	relative binding free energy [kcal/mol]
AGCGTCACGTGGTCTG	0.1
CGAGTCACGTGAAGTG	0.26
AAATTCACGTGTGGCG	0.34
TGAGGCACGTGCGGAA	-0.11
AGTGCCACGTGGGAGC	-0.08
AGAGGCACGTGAGGCG	0.01
TCGTGCACGTGGATGT	0.03
TTCTGCACGTGGTGGT	-0.04
AGGACCACGTGGGTTA	-0.16
AGTGTCACGTGTGAGA	0.16
GCTGTCACGTGAGGAT	0.25
ATGTTCACGTGCCGTG	0.17
AGATGCACGTGCGGGC	-0.03
TCGGGCACGTGTTCTT	0.06
TGATACACGTGAGGGA	0.28
TGGCTCACGTGATTCG	0.26
AGGTACACGTGGTTGT	-0.05
TTGGACACGTGTGGTA	0.05
TGAGTCACGTGGTGGT	0.07
TAGGCCACGTGGTTGT	-0.05
TAGGGCACGTGTAAAA	0.07
AATTACACGTGGATTT	0.16
GTACTCACGTGGAGTG	0.22

Sequence	relative binding free energy [kcal/mol]
TGATCCACGTGGGGAG	0.03
TATTACACGTGTGGAA	0.19
GGGATCACGTGGGTAG	0.17
CTTTTCACGTGCATGT	0.24
ATTGTCACGTGATAAG	0.33
CAGGTCACGTGATGGG	0.24
GTAGACACGTGCTGGG	-0.09
TAACGCACGTGGGGAA	-0.11
AAGGTCACGTGGGTAT	0.02
AGGGGCACGTGTATGA	-0.16
GAATTCACGTGTAGTA	0.33
GCAGGCACGTGGGTAT	-0.15
GATGGCACGTGACATG	0.09
AATGTCACGTGGAAGT	-0.07
TGAGCCACGTGGGGTA	-0.25
TGTTGCACGTGATAGA	0.08
TTGTGCACGTGCCGTT	0.05
TGTTACACGTGCGTGG	0.07
GACGGCACGTGAGAGT	0.18
TAGCACACGTGGTGGT	-0.1
TGGCGCACGTGCGTGG	-0.18
GGTTTCACGTGTGTTT	0.4
AAGTACACGTGTGGTT	0.06

Sequence	relative binding free energy [kcal/mol]
GATCTCACGTGGGTGA	0.24
CGGTACACGTGGGTTT	0.01
TTTATCACGTGGGTTT	0.12
ATTAGCACGTGTGAAG	0.03
AAGTGCACGTGAAGGA	0.28
AAGTTCACGTGGTAGG	0.27
AGGCTCACGTGTTTGT	0.12
AAGTTCACGTGAATGC	0.56
TAGTACACGTGTTATG	0.1
TGGTGCACGTGCCAGG	-0.12
AACGTCACGTGGTGAG	0.03
TTAGTCACGTGGCATA	0.01
GACGGCACGTGATGTG	0.12
TGATTCACGTGTCTGT	0.29
CGTTTCACGTGTGCTT	0.42
CTTGACACGTGGGGTT	-0.14
CGTTTCACGTGGTGTC	0.24
TTTTTCACGTGGGTAT	0.29
AGGTGCACGTGTGCTA	-0.08
GGTTCCACGTGGGAAG	0.21
CATTGCACGTGTGCGG	0.03
GCAGGCACGTGGTGGC	-0.17
CTTGGCACGTGAGATG	-0.01

Sequence	relative binding free energy [kcal/mol]
ATAATCACGTGTGGAG	0.11
CGTGACACGTGAGGGT	0.07
GGGGGCACGTGCAACG	0.02
TTTTTCACGTGAATTG	0.5
GAGGGCACGTGGGTGC	-0.11
AGTGTCACGTGAGTTA	0.13
GAATTCACGTGATTGT	0.46
ACTGACACGTGATGGT	0.14
GTGACCACGTGGGTAG	-0.25
TGGAACACGTGTGTAG	0.09
AGTGCCACGTGACGGG	-0.03
TTGAGCACGTGTGACG	-0.03
GTTAACACGTGTGTTT	0.13
GTATACACGTGCTTGT	0.04
TTCATCACGTGGGTGG	0.03
TGTGTCACGTGTTAAT	0.18
TGGCTCACGTGCTAGT	0.32
ATGGGCACGTGACGGG	-0.02
GGGTGCACGTGAACTT	0.13
TAGTGCACGTGTGCAT	-0.13
TTGGTCACGTGAGATA	0.27
TCGTGCACGTGTTGGG	-0.07
ATCTGCACGTGTAGTA	0.05

Sequence	relative binding free energy [kcal/mol]
GGCTCCACGTGTGGTG	0.14
TATGTCACGTGAAGTC	0.33
TTCTTCACGTGTGTTC	0.24
TTGCTCACGTGGTCTT	-0.02
GGCGGCACGTGCGCGG	-0.25
GGAAGCACGTGAGTGA	0.3
GTAGGCACGTGTTGGG	0
GTGTGCACGTGAATAT	0.22
GGGGTCACGTGTCATA	0.14
TATAGCACGTGGTAGG	-0.07
ATGAACACGTGGTTAA	-0.01
TTGCTCACGTGTGTCT	0.29
TATGTCACGTGTGCAT	-0.03
TAATACACGTGTGCGT	0.08
TTTGACACGTGTAAGA	0.21
TGGTTCACGTGATCTA	0.29
GATTGCACGTGAAGGG	0.4
TAGGGCACGTGTGTGC	-0.05
TCGGGCACGTGCGTGT	-0.3
TAATACACGTGTGGTA	-0.03
CTGGGCACGTGGTGTT	-0.17
TGTCTCACGTGTGATT	0.3
TTCATCACGTGCATGG	0.3
